Biological target: T1, TRPM8-2 fragment (rat TRPM8 M353-T690) (rat, UniProt Q8R455 353-690, 35S-methionine labelled)
T1 construct: In vitro translated from pAGA3; also called TRPM8-2/pAGA3; rTRPM8-2
Experiment: GST pull-down control (GST alone on beads), autoradiography, FIG. 1B
Protocol: Agarose-GSH beads (50% (vol./vol.)) bound with about 1 μg of GST or GST-CaM were incubated with 10 μl of ³⁵S-labelled TRPM8 fragment for 30 min at room temperature in a final volume of 200 μl of binding buffer. At the end of the incubation, the beads were washed three times with 1.0 ml of binding buffer and resuspended in 20 μl of 2× laemmli's sample loading buffer. Protein(s) bound to the beads, including the GST-CaM fusion protein, and possibly the ³⁵S-labelled TRPM8 fragment that interact with the GST-CaM fusion protein, were separated by SDS/PAGE followed by autoradiography.

B1: GST (other)
chain: not shown
notes: Negative control bait; also called glutathione S-transferase control
- binding result: no binding

From patent US20070105155A1 (Janssen / Centocor, published 2007)
